# Results: PubChem BioAssay AID2451 (National Center for Advancing Translational Sciences (NCATS), 2010)
# Values joined by “and” are separate entries in the source; they are usually repeats but may differ in a detail not shown here. Identical values can stand only once. Out of some 290,000 compounds screened, about 2,100 (0.72%) were called active. Inconclusive means that the source gave no clear call. Such entries were picked first, then a sample of the others. Calls follow the shape of the dose curve; as a rule, active = well fitted inhibition curve with a large enough effect; inconclusive = small, poorly fitted or top-dose-only effect, or effect the other way; inactive = flat fitted curve, though single readings scatter. Potencies beside an inconclusive call are fits to weak or partial responses and may not hold up.
# Molecular target: Fructose-bisphosphate aldolase (Giardia intestinalis (strain ATCC 50803 / WB clone C6)) (UniProt A8B2U2)
# UniProt A8B2U2, sequence (A8B2U2 whole entry, looked up): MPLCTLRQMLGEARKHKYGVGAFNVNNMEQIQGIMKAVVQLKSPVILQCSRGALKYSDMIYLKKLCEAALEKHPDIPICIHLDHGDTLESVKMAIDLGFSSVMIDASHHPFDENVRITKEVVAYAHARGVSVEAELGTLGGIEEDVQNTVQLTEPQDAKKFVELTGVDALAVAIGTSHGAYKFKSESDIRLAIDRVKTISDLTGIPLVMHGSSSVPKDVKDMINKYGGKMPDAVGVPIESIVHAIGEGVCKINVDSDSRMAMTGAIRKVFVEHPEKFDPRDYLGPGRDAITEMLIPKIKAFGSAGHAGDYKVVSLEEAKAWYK
# Assay: qHTS Assay for Inhibitors of Fructose-1,6-bisphosphate Aldolase from Giardia Lamblia; also: nearly all actives have a fitted effect of over 55% in size
# Conditions: purified Giardia FBPA; activity, negative = inhibition: at 59.6 µM (top of the series) unless noted
# Outline: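 Giardia FBPA (40 nM reagent) was preincubated 10 min at RT with compound (up to 57.5 uM final), then substrate plus GAPDH/TPI/NAD/arsenate coupling system with diaphorase/resazurin was added; resorufin fluorescence (525/598 nm) was read after 20 min.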
# % is scaled to controls: 0 for no effect and ±100 for the full control effect; potency is read from the fitted curve at half-maximal effect; tags tell the direction and shape of the fitted curve.
SMILES,"activity, negative = inhibition",Potency
Cc1noc(C(=O)Nc2ccc(Cl)cc2)c1Cl,inactive: -5.5%,
Cc1ccc(OCc2nc(C#N)c(NCCCn3ccnc3)o2)cc1,inactive: 2.87%,
COc1ccc(/C=C/c2nc3ccccc3n2C)cc1,,"inconclusive: 15.8 µM [inhibitor, partial curve]"
Cc1ccc(/C=N/NC(=O)CSc2nc3ccccc3c(=O)n2-c2ccccc2)s1,inactive: -0.0842%,
O=c1c2cn[nH]c2nc(SCc2ccc3c(c2)OCCO3)n1-c1ccccc1,inactive: -0.938%,
CCOc1ccccc1C1C(C#N)=C(N)Oc2cc(C)n(Cc3ccccn3)c(=O)c21 (stereo not drawn),,"inconclusive: 17.7 µM [inhibitor, single point]"
CN1CCN(CC#CCOc2ccc(Cl)cc2)CC1,,"inconclusive: 17.8 µM [inhibitor, partial curve]"
CCCc1nc2oc3c(OC)ncnc3c2c2c1COC(C)(C)C2,inactive: 0.0919%,
CC(=O)N1CCc2c(sc3c2c(=O)n(-c2ccccc2)c(=O)n3CC(=O)NCC2CCCO2)C1 (stereo not drawn),,active: 10 µM
Cn1c(N)c(C(=O)COC(=O)c2cc(C3CC3)nc3ccccc23)c(=O)n(C)c1=O,,inactive
COc1ccc(C)cc1Nc1nc(N)c2ccccc2n1,,"inconclusive: 28.2 µM [inhibitor, single point]"
COc1ccccc1NC(=O)CSc1nc2ccccc2nc1N1CC(C)OC(C)C1 (stereo not drawn),inactive: -14.2%,
Nc1n[nH]c(=S)n1/N=C1/C(=O)Nc2ccccc21,,"inconclusive: 8.89 µM [inhibitor, partial curve]"
CCOC(=O)Cc1csc(NC(=O)c2ccc([N+](=O)[O-])cc2[N+](=O)[O-])n1,,"inconclusive: 39.8 µM [inhibitor, single point]"
Nc1ccc(N=Nc2ccccc2)cc1,inactive: 3.9%,
CC1(C)CC(=O)C2=C(C1)N(c1ncn[nH]1)C(N)=C(C#N)C2c1ccccc1 (stereo not drawn),,"inconclusive: 3.97 µM [inhibitor, single point]"
Cc1nc(N[C@@H](Cc2c[nH]c3ccccc23)C(=O)O)c2oc3ccccc3c2n1,,"inconclusive: 17.7 µM [inhibitor, partial curve]"
O=C(N/N=C/c1ccccn1)c1ccco1,,active: 19.9 µM
CC(=O)c1ccc(NC(=O)C[n+]2ccc(N(C)C)cc2)cc1,,"inconclusive: 31.6 µM [inhibitor, single point]"
Fc1ccc(Nc2nc(N3CCOCC3)c3ccccc3n2)cc1,inactive: -4.84%,
O=C(Nc1ccc(Oc2ccccc2)cc1)C1CCN(c2ncccn2)CC1,inactive: 11.5%,
[O-]/[N+](=C\c1ccccc1)[C@@H]1CCCC[C@@H]1/[N+]([O-])=C/c1ccccc1,inactive: -0.814%,
COCCN(C/C=C/c1ccccc1)C/C=C/c1ccccc1,,"inconclusive: 10 µM [inhibitor, full curve, poor fit]"
CC1=CC(C)=Nc2ccc(C)cc2N1,,"inconclusive: 17.7 µM [inhibitor, single point]"
O=C(O)COc1ccccc1C(Nc1ccccn1)c1cc(Cl)c2cccnc2c1O (stereo not drawn),,"inconclusive: 14.1 µM [inhibitor, partial curve]"

SMILES,"activity, negative = inhibition",Potency
CC(=O)Nc1ccc(NC(=O)C2CCCN2C(=O)Nc2ccc(F)cc2)cc1 (stereo not drawn),inactive: 9.86%,
COc1cc(COCC(O)CN2CCOCC2)cc(OC)c1OC (stereo not drawn),,"inconclusive: 22.4 µM [inhibitor, single point]"
CCSc1ncc(Cl)c(C(=O)Nc2ccc(S(=O)(=O)Nc3onc(C)c3C)cc2)n1,,"inconclusive: 17.7 µM [activator, single point]"
Cc1ccc(-c2ccc(/C=N/N=C3/NC(=O)C(CC(=O)O)S3)o2)c([N+](=O)[O-])c1 (stereo not drawn),,"inconclusive: 1.99 µM [inhibitor, partial curve]"
S=C(NCC1CCCO1)N1CCN(Cc2ccccc2)CC1 (stereo not drawn),,"inconclusive: 14.1 µM [inhibitor, partial curve]"
CC1CN(C2=Nc3cccc4cccc2c34)CC(C)O1 (stereo not drawn),,"inconclusive: 7.06 µM [inhibitor, full curve]"
O=C(COc1cccc2ccccc12)N/N=C/c1ccc(Sc2nc3ccccc3s2)o1,inactive: -7.24%,
Cc1c(C(=O)c2no[n+]([O-])c2C(=O)c2cnn(C)c2C)cnn1C,,"inconclusive: 31.5 µM [inhibitor, single point]"
C=CCc1cc(OC)ccc1OCCN(C)Cc1ccccc1,,"inconclusive: 17.7 µM [inhibitor, partial curve]"
COC(=O)/C(=C/Nc1ccc(O)cc1)[N+](=O)[O-],,"inconclusive: 8.89 µM [inhibitor, partial curve]"
O=C(CSc1cccc[n+]1[O-])c1cc(Cl)ccc1Cl,,"inconclusive: 17.7 µM [inhibitor, single point]"
Cc1cc(NC(=O)CSc2nnc(C3COc4ccccc4O3)n2N)no1 (stereo not drawn),,active: 19.9 µM
CCOC(=O)c1nn(-c2ccc(C)c(C)c2)c(=O)c2c(N)scc12,,"inconclusive: 1.12 µM [inhibitor, full curve]"
Cc1c(OCC(=O)N2CCC(C(=O)O)CC2)ccc2c3c(c(=O)oc12)CCC3,inactive: 23.9%,
c1ccc(-c2ccccc2OCCCN2CCCCCC2)cc1,,"inconclusive: 15.8 µM [inhibitor, partial curve]"
Cc1cc(NC(=O)CN2CCCCC2)no1,,"inconclusive: 19.9 µM [inhibitor, partial curve]"
CC(/C=N/NC(=O)c1sc(N)nc1C)=C\c1ccccc1,inactive: 4.89%,
COC(=O)CCCC1=CC2=CC(=O)C(C)(OC(=O)c3cccs3)C(=O)C2=CN1Cc1ccccc1 (stereo not drawn),,"inconclusive: 889 nM [inhibitor, full curve] and inconclusive: 998 nM [inhibitor, full curve]"
O=C1CC(C(=O)O)S/C(=N\NC(=O)c2ccccc2)N1 (stereo not drawn),,"inconclusive: 8.91 µM [inhibitor, partial curve]"
CCOC(=O)N1CC=C2C(C#N)=C(N)C(C#N)(C#N)[C@H](c3cccs3)[C@H]2C1,,"inconclusive: 19.9 µM [inhibitor, single point]"
CC1CC(C)CN(CC(O)COCc2ccccc2)C1 (stereo not drawn),inactive: -14.8%,
CN(C)c1cccc2c1c(NC(=O)Nc1ccc(F)cc1F)nn2C,,"inconclusive: 3.97 µM [inhibitor, full curve]"
COc1cc(Cl)ccc1OCc1cc(C(=O)N(C)CCc2cnn(C)c2)no1,inactive: 9.98%,
COc1ccc(-c2nc(C#N)c(NCCc3ccccc3)o2)cc1,inactive: -8.66%,
N#C/C(=C/c1ccc(N2CCOCC2)o1)c1nc2ccccc2[nH]1,,"inconclusive: 12.6 µM [inhibitor, partial curve]"

SMILES,"activity, negative = inhibition",Potency
COC(=O)c1ccccc1OCCN1CCCCCC1,,"inconclusive: 14.1 µM [inhibitor, partial curve]"
C/C(=N\O)c1ccc2c3ccccc3n(C)c2c1,inactive: 2.32%,
CCCn1c(=O)c2c(nc3n2CCCN3CCc2ccccc2)n(C)c1=O,inactive: 7.51%,
COCc1nnc(NC(=O)c2ccc(S(=O)(=O)N3CCCC3)cc2)o1,,"inconclusive: 15.8 µM [inhibitor, partial curve]"
Cc1ccc(S(=O)(=O)N(CC(=O)NCc2ccco2)Cc2ccccc2F)cc1,,"inconclusive: 15.8 µM [inhibitor, single point]"
CCCCN(C)C1CCN(C(=S)Nc2cccc(OC)c2)CC1,,"inconclusive: 35.4 µM [inhibitor, single point]"
Cc1ccc2cc(CN(Cc3ccc(F)cc3)Cc3nnnn3C3CCCC3)c(=O)[nH]c2c1,,"inconclusive: 31.5 µM [inhibitor, single point]"
COc1cc2c(cc1NC(=O)CSc1ccc(C)cc1)oc1ccccc12,inactive: -8.18%,
COc1ccc(/C=C(/C(=O)c2cccs2)N2C=CC=CC2=C(C#N)C#N)cc1,inactive: -4.3%,
Cc1nc(-c2ccc(O)c(O)c2)cs1,,"inconclusive: 17.7 µM [inhibitor, single point]"
NS(=O)(=O)c1ccc(CCNCC(=O)NCc2ccccc2Cl)cc1,,"inconclusive: 20 µM [inhibitor, partial curve]"
CS(=O)(=O)c1ccc(C(=O)Nc2ccc(-c3nc4ccccc4[nH]3)cc2)cc1,inactive: 7.17%,
O=C(O)CCCNc1cc(N2CCC3(CC2)OCCO3)c2noc3c2c1C(=O)c1ccccc1-3,,"inconclusive: 11.2 µM [inhibitor, partial curve]"
O=C1NC(=O)N(CCNc2ncc(C(F)(F)F)cc2Cl)C(=O)C1Cc1ccc(Cl)cc1 (stereo not drawn),,"inconclusive: 17.7 µM [activator, single point]"
CC(C)NC(=S)Nc1ccc2[nH]c(=O)[nH]c2c1,,"inconclusive: 15.8 µM [inhibitor, partial curve]"
c1cc2c(cc1CCNC1C3CC4CC(C3)CC1C4)OCO2 (stereo not drawn),,"inconclusive: 15.8 µM [inhibitor, partial curve]"
CCCS(=O)(=O)N1CCN(CC2CC=CCC2)CC1 (stereo not drawn),,"inconclusive: 15.8 µM [inhibitor, partial curve]"
Cc1ccc(-c2ccc3nnc(SCC(N)=O)n3n2)cc1,,"inconclusive: 31.5 µM [inhibitor, single point]"
Oc1ccc(/C=N/N2CCCCC2)c(O)c1O,,active: 2.82 µM
CCOc1ccc(/C(O)=C2\C(=O)C(=O)N(c3ccc(OC)cc3)C2c2ccccc2[N+](=O)[O-])cc1 (stereo not drawn),,"inconclusive: 44.6 µM [inhibitor, single point]"
COc1cccc(CN2CCN(C(c3ccccc3)c3ccccc3)CC2)c1O,,"inconclusive: 12.6 µM [inhibitor, partial curve]"
COc1ccc(OC)c(N)c1,,"inconclusive: 3.54 µM [inhibitor, full curve]"
CCc1ccc(NC(=O)[C@H](Cc2c[nH]c3ccccc23)NC(=O)[C@@H]2Cc3ccccc3CN2)cc1,,"inconclusive: 4.47 µM [inhibitor, full curve, poor fit]"
